Reference: PubChem BioAssay AID493208 (National Center for Advancing Translational Sciences (NCATS), 2011)
Hit rate of the full screen: of about 44,000 compounds, about 340 (0.77%) were called active. About 5% were inconclusive and are not listed. Calls follow the shape of the dose curve; as a rule, active = well fitted inhibition curve with a large enough effect; inconclusive = small, poorly fitted or top-dose-only effect; inactive = flat fitted curve, though single readings scatter. This is one part of the list.

Assay: Acumen qHTS Assay for Inhibitors of the mTORC1 Signaling Pathway in MEF (Tsc2-/-, p53-/-) Cells: Sytravon;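 also: plate controls were DMSO for no effect and rapamycin for full effect; nearly all actives have a fitted effect of over 50% in size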
Details: phospho-rpS6 immunofluorescence/PI, 24 h; series mostly up to 38.3 µM; activity change, negative = inhibition: at the top concentration
In short: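 Compounds act on Tsc2-/-, p53-/- fibroblasts carrying an empty vector for 24 h before fixation and dual staining for phospho-S6 and DNA (propidium iodide). Values are percentages of cells above a rapamycin-defined pS6/PI threshold.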

SMILES	activity change, negative = inhibition
Cc1nn(-c2ccccc2)c2nc(C3CC3)cc(C(=O)Nc3ccccc3F)c12	inactive: -8.32%
COc1ccc(-c2noc(CNC(=O)c3ccco3)n2)cc1	inactive: 4.47%
O=C(NCc1ccco1)c1ccc2c(c1)N(Cc1cccc(Cl)c1)C(=O)c1ccccc1S2(=O)=O	inactive: -0.898%
Cc1ccc(CNC(=O)CSc2cc(C)[nH]c(=O)n2)cc1	inactive: 0.108%
CC1CCN(C(=O)CSc2nc(-c3ccccc3)no2)CC1	inactive: -5.76%
COc1cc(C(=O)N2CCC(c3nc4ccccc4o3)CC2)cc(OC)c1OC	inactive: 0.493%
Cc1c(NS(=O)(=O)c2ccccc2)cc(C(C)C)c(O)c1S(=O)(=O)c1ccc(Cl)cc1	inactive: 7.12%
COc1ccc(C(c2c(O)cc(C)n(Cc3ccco3)c2=O)N2CCCCC2)cc1OC (configuration not stated)	inactive: -7.52%
COc1cc(Cl)c(C)cc1NC(=O)c1ccc2c(Cl)c3c(nc2c1)CCC3	inactive: 1.73%
CCOc1cccc(CC(=O)N2CCc3c([nH]c4ccccc34)C2c2ccc(Cl)cc2)c1OCC (configuration not stated)	inactive: -5.73%
CCOc1ccccc1CNC(=O)c1cnc2sc(N3CCCCCC3)nn2c1=O	inactive: -2.24%
CCOc1ccccc1NC(=O)c1c(NC(=O)c2ccccc2)sc2c1CCCC2	inactive: 1.81%
CCc1ccc(Oc2c(C(F)(F)F)oc3c(CN4CCN(C)CC4)c(O)ccc3c2=O)cc1	inactive: -11.7%
CCc1ccc(S(=O)(=O)NCCc2csc3nc(-c4ccccc4)nn23)s1	inactive: -3.55%
CC(C)(C)c1ccc(-c2nc3cc(NC(=O)c4cccc(Br)c4)ccc3o2)cc1	inactive: 7.12%
O=C(NCCc1csc2nc(-c3ccc(F)cc3)nn12)c1cccc(C(F)(F)F)c1	inactive: -12.3%
COc1cccc(CNC(=O)Cn2ncc3c4ccccc4n(Cc4ccccc4)c3c2=O)c1	inactive: -6.02%
COc1ccc(-n2ccn(CC(=O)NCCc3ccccc3)c(=O)c2=O)cc1OC	inactive: -0.757%
COc1cccc(C(=O)NCc2nc(-c3ccccc3)no2)c1OC	inactive: -9.33%

SMILES	activity change, negative = inhibition
Cn1c(=O)c2c(ncn2CC(=O)Nc2cccc(C(F)(F)F)c2)n(C)c1=O	inactive: -14.8%
Cc1cccc(NC(=O)CCc2c(C)nc3nc(CNC(=O)c4cccc(F)c4)nn3c2C)c1	inactive: -1.02%
COc1ccc(Cn2c(SCc3ccc(C(=O)NC4CCCC4)cc3)nc3cccnc32)cc1	inactive: -0.265%
COc1ccc(-c2noc(CSc3nnc(-c4ccncc4)n3-c3ccc(C)cc3)n2)cc1OC	inactive: -11.9%
O=C(Cn1c(=O)n(Cc2ccc3c(c2)OCO3)c(=O)c2oc3ccccc3c21)Nc1ccc(F)cc1	inactive: -2.89%
CCn1cc(CNC(=O)c2cc(-c3ccc(C)c(C)c3)nc3ccccc23)c(C)n1	inactive: -21.4%
CC1CCCCN1C(=O)Cn1c(SCC(=O)N(C)c2ccccc2)nc2ccccc21 (configuration not stated)	inactive: 0%
Cc1ccc(NC(=O)c2ccc(=O)n(CC(=O)Nc3cccc(C)c3)n2)cc1	inactive: -3.31%
CCOc1ccccc1CNS(=O)(=O)c1ccc(-c2coc(C)n2)cc1	inactive: -6.37%
Cc1cccc(C(c2sc3nc(-c4ccco4)nn3c2O)N2CCN(c3ccccc3)CC2)c1 (configuration not stated)	inactive: 0.0759%
Cc1ccc(NC(=O)c2ccc(NC(=O)N3CCSc4nc(C)cc(C)c43)cc2)c(Cl)c1	inactive: -2.88%
O=C(Cn1nc2c(cc1=O)CCCC2)Nc1ccccc1C(F)(F)F	inactive: -7.78%
COC(=O)c1ccccc1NC(=O)c1cc2nc(-c3ccc(OC)cc3)cc(C(F)(F)F)n2n1	inactive: 4.46%
Cc1ccc(C)c(NC(=O)c2ccc3nc(CCc4ccccc4)oc3c2)c1	inactive: -11%
O=C(CSc1n[nH]c(-c2ccccc2Cl)n1)N1CCN(c2ccccc2)CC1	inactive: -14.5%
CCOC(=O)CNS(=O)(=O)c1cc(-c2nnc(Nc3cccc(O)c3)c3ccccc23)ccc1C	inactive: -8.54%
Cc1cc(NC(=O)c2cccs2)cc(-c2nc3cc(Cl)ccc3o2)c1O	inactive: 7%
CCn1cc2nc(SCC(=O)Nc3ccc(C)cc3C)n(Cc3ccc(C)cc3)c(=O)c2n1	inactive: -4.42%
